About 31,000 (8.9%) of roughly 350,000 compounds were called active. Inconclusive results, whose numbers are uncertain, are shown with a selection of clear calls. Calls come from the whole dose curve; as a rule, active = well fitted inhibition curve with a large enough effect; inconclusive = small, poorly fitted or top-dose-only effect; inactive = no such curve, though single readings can be large or run the other way. Where the call is inconclusive, the potency comes from a doubtful curve fit.
Target: Histone-lysine N-methyltransferase EHMT2 (Homo sapiens) (UniProt Q96KQ7)
Chain of UniProt Q96KQ7 (Q96KQ7 whole entry, looked up): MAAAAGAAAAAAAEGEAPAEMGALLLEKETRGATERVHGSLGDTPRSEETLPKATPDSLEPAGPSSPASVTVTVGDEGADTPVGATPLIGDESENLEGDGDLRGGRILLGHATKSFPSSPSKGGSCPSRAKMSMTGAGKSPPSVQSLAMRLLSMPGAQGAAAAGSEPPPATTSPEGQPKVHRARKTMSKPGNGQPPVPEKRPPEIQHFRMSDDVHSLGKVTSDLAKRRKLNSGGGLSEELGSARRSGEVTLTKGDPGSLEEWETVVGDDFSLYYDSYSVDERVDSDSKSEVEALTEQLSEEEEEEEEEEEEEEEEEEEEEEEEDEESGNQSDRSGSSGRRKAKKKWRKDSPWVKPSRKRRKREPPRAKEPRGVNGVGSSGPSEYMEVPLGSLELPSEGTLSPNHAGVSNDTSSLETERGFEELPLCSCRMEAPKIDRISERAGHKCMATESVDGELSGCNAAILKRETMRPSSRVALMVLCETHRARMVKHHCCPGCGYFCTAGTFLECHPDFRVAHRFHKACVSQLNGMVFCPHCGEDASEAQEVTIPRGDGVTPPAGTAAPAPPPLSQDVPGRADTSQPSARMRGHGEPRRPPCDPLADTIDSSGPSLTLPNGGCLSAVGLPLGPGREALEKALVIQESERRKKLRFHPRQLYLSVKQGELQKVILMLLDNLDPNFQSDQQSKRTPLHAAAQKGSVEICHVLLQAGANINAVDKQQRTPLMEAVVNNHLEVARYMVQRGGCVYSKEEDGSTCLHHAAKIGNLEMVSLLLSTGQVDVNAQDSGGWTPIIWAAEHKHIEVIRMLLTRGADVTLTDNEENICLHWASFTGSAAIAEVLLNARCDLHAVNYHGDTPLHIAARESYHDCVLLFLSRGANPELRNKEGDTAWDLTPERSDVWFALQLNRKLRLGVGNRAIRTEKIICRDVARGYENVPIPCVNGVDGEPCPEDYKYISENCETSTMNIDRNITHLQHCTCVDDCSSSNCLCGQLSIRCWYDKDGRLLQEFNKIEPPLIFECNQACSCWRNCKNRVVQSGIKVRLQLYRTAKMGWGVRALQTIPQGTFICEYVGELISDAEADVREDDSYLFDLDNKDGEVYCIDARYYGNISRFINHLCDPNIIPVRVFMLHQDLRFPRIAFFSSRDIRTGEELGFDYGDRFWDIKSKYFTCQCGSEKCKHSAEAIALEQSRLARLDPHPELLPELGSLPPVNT
Experiment: qHTS Assay for Inhibitors of Histone Lysine Methyltransferase G9a; note: nearly all actives have a fitted effect of over 75% in size
Details: G9a H3K9 monomethylation, AlphaScreen, 2 h; activity, negative = inhibition: at 59 µM (top of the series) unless noted
Procedure, shortened: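 Step 1: enzyme (final 20 nM) with compound, 15 min RT. Step 2: substrate peptide 500 nM and SAM 20 uM, 2 h RT. Step 3: anti-H3K9me1 antibody and AlphaScreen beads, 10 min, then plate read.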
% is set by controls: 0 for no effect and ±100 for the full control effect; potency is the fitted concentration of half-maximal effect; tags give direction and shape of the fitted curve.

| Structure (SMILES) | activity, negative = inhibition | Potency |
| --- | --- | --- |
| CCN(C(=O)COC(=O)c1oc2ccccc2c1C)c1c(N)n(Cc2ccccc2)c(=O)[nH]c1=O | inactive: 2.59% [at 12.7 µM] | – |
| Cn1c(=O)[nH]c(=O)c2c1nc(NCCc1ccccc1)n2CC(O)COc1ccccc1 (stereo not given) | – | inconclusive: 8.91 µM [inhibitor, partial curve, poor fit] |
| COc1ccc(CCNC(=O)Cc2c(Cl)cccc2Cl)cc1 | – | inconclusive: 89.1 µM [inhibitor, single point] |
| CN1CCN(NC(=O)CN2C(=O)/C(=C/c3ccccc3Cl)SC2=S)CC1 | – | inconclusive: 39.8 µM [inhibitor, single point] |
| CC1Cc2nc(SCC(=O)N3CCN(c4ccccc4)CC3)n(CCc3ccccc3)c(=O)c2S1 (stereo not given) | – | inconclusive: 4.47 µM [inhibitor, partial curve, poor fit] |
| Cc1ccc(CN2CCN(c3ncccn3)CC2)c(C)c1 | – | active: 10 µM |
| c1ccc(OCc2nnc3n2N=C(c2ccccc2)CS3)cc1 | – | active: 7.94 µM |
| CN1CCN(CC(=O)NC2CCCCC2)CC1 | – | inconclusive: 28.2 µM [inhibitor, single point] |
| C=C(C)CNC(=S)N/N=C/c1ccccc1OCC(=O)O | – | active: 11.2 µM |
| Cc1ccc(C)c2sc(N)nc12 | inactive: -31.1% [at 102 µM] | – |
| Cn1c(=O)c2c(nc(CN3CCC(Cc4ccccc4)CC3)n2CCN2CCOCC2)n(C)c1=O | – | inconclusive: 12.6 µM [inhibitor, partial curve, poor fit] |
| CCc1nnc(NC(=O)COc2ccc3ccccc3c2)s1 | – | inconclusive: 79.4 µM [inhibitor, single point] |
| CCOC(=O)CNC(=S)NN(C)C | – | inconclusive: 50.1 µM [inhibitor, partial curve, poor fit] |
| CC(C)C(c1nnnn1C1CCCCC1)N1CCc2ccccc2C1 (stereo not given) | – | inconclusive: 28.2 µM [inhibitor, single point] |
| Cc1cc(=O)[nH]c(NN=C2CCC(C(C)(C)C)CC2)n1 (stereo not given) | – | active: 31.6 µM |
| Cc1ccc(C(C(=O)NC2CCCC2)N2CCc3ccccc32)cc1 (stereo not given) | – | inconclusive: 89.1 µM [inhibitor, single point] |
| CCc1ccc2c(c1)[C@]1(C(=O)N2)[C@@H]2C(=O)N(Cc3ccccc3)C(=O)[C@@H]2[C@@H]2CCCN21 | – | active: 70.8 µM |
| CC(=O)N1CCOc2ccc(S(=O)(=O)N3CCCC(C)C3)cc21 (stereo not given) | inactive: 26.7% [at 102 µM] | – |
| COc1ccc(-c2nnc(SCC(=O)Nc3ccc(Cl)cc3)n2C)cc1 | inactive: 19.6% | – |
| O=S(=O)(Nc1nc2c(s1)CCCC2)c1ccc(Br)cc1 | – | inconclusive: 20 µM [inhibitor, single point] |
| Cc1nc2ccc(S(=O)(=O)CCC(=O)Nc3ccc(F)cc3C)cc2s1 | – | active: 4.47 µM |
| CCc1nccn1S(=O)(=O)c1ccc2ccc(C)cc2c1 | – | inconclusive: 31.6 µM [inhibitor, single point] |
| CCCCc1c(C)nc2c(OC)cccc2c1SCCC(=O)O | – | inconclusive: 35.5 µM [inhibitor, single point] |

| Structure (SMILES) | activity, negative = inhibition | Potency |
| --- | --- | --- |
| Cc1cc(OCCCSc2nc(-c3ccc(C(C)(C)C)cc3)nc3cc(=O)[nH]n23)ccc1Cl | inactive: -1.33% | – |
| CCNS(=O)(=O)c1ccc(NC(=O)c2ccccc2SCCOC)cc1 | – | active: 15.8 µM |
| O=C(CCN1C(=O)C2CCCCC2C1=O)Nc1ccc(Br)cc1F (stereo not given) | – | inconclusive: 63.1 µM [inhibitor, partial curve, poor fit] |
| CCn1c(C(C)NC(=O)c2cccc(C)c2)nc2ccccc21 (stereo not given) | – | inconclusive: 56.2 µM [inhibitor, partial curve, poor fit] |
| COc1ccccc1OCCC(=O)Nc1cccc(S(=O)(=O)N2CCCCC2)c1 | – | inconclusive: 89.1 µM [inhibitor, single point] |
| Cc1ccc(S(=O)(=O)N2CCOCC2)c(C)c1-n1cnnn1 | inactive: -0.816% | – |
| CCOC(=O)c1cc(-c2ccc(C)cc2)nn1Cc1ccccc1 | inactive: 136% | – |
| CCNC(=O)Nc1ccc(-n2nc(C)c(C(=O)OCC)c2C)nc1 | inactive: -0.871% [at 102 µM] | – |
| O=S(=O)(Nc1ccc(S(=O)(=O)N2CCCC2)cc1)c1ccccc1Br | inactive: 2.56% [at 12.7 µM] | – |
| CCN(CC)CCCNC(=O)c1cc2c(=O)n(C)c3ccccc3c2n1C | – | inconclusive: 89.1 µM [inhibitor, single point] |
| COc1ccc(C(=O)CNc2ccc3ccccc3c2)cc1 | – | inconclusive: 3.16 µM [inhibitor, single point] |
| CCOc1ccc(-c2nc3c(C#N)c[nH]n3c2NC2CCCC2)cc1 | – | inconclusive: 15.8 µM [inhibitor, partial curve, poor fit] |
| Cc1ccc(C2=Nc3ccccc3NC(c3ccncc3)=N2)cc1 | – | inconclusive: 10 µM [inhibitor, partial curve, poor fit] |
| CCC(C)NC(=O)c1cc(Cl)c(NC(=O)C2=C(C)OCCS2)cc1OC (stereo not given) | – | inconclusive: 0.708 µM [inhibitor, partial curve, poor fit] |
| Cc1nc2nc(NC(=O)c3ccco3)[nH]n2c(=O)c1C | – | inconclusive: 56.2 µM [inhibitor, partial curve, poor fit] |
| CC(C)(C)c1ccc(C(=O)CCC(=O)OCC(=O)NCCc2ccc(S(N)(=O)=O)cc2)cc1 | inactive: 16.2% [at 12.7 µM] | – |
| COc1ccc(Nc2cc(C)nc(-n3nc(C)cc3C)n2)cc1Cl | inactive: 25.4% | – |
| CCOc1ccc(N(CC(=O)Nc2ccccc2C)S(=O)(=O)c2c(C)noc2C)cc1 | – | inconclusive: 89.1 µM [inhibitor, single point] |
| CCn1c(SCC(=O)N(C)C2CCS(=O)(=O)C2)nnc1-c1ccccc1 (stereo not given) | – | inconclusive: 56.2 µM [inhibitor, partial curve, poor fit] |
| CC1CCN(CC(=O)c2cccs2)CC1 | – | inconclusive: 7.94 µM [inhibitor, partial curve, poor fit] |
| COc1ccc2c(c1)c(=O)c(S(=O)(=O)c1ccc(C)c(C)c1)cn2CC(=O)Nc1ccccc1 | inactive: 2.45% | – |
| CN(C)C(=O)/C=C\c1cn(-c2ccccc2)nc1-c1ccc2c(c1)OCCO2 | – | inconclusive: 50.1 µM [inhibitor, partial curve] |

From PubChem BioAssay AID504332 (National Center for Advancing Translational Sciences (NCATS), 2011)
